# Out of some 350,000 compounds screened, about 9,900 (2.8%) were called active. The shares of active, inactive and inconclusive entries below differ from those in the screen. The call rests on the fitted dose curve; in most records, active means well fitted activation curve with a large enough effect; inconclusive means small, poorly fitted or top-dose-only effect; inactive means no such curve, though single readings can be large or run the other way. No potency is given beside an inconclusive call; the fits are too rough.
# Test: A quantitative high throughput screen for small molecules that induce DNA re-replication in MCF 10a normal breast cells. Further: nearly all actives have a fitted effect of over 50% in size. On activity, positive = re-replication: % of control where 0% means no effect.
# Conditions: MCF 10A DNA re-replication, Hoechst nuclear intensity, 48 h; activity, positive = re-replication: at 46.1 µM (top of the series)
# Potency means the concentration at half of the fitted maximal effect; tags describe the fitted curve by direction and shape.
Compound,"activity, positive = re-replication",Potency
COc1cc(CN2CCCC(N3CCN(c4ccc(F)cc4)CC3)C2)ccc1F (configuration not stated),inactive: 2.99%,
O=C(Nc1cnn(Cc2ccc(Cl)c(Cl)c2)c1)c1nc2ncccn2n1,,"inconclusive [activator, single point]"
CCOC(=O)C(CC)(CC)C(=O)/C=C/c1cccc(Br)c1,,active: 18.4 µM
CN(C)S(=O)(=O)c1cccc(NC(=O)CSc2nc3ccccc3n2-c2ccccc2)c1,,"inconclusive [activator, partial curve, poor fit]"
COc1cccc(OCc2cc(C(=O)N3CCN(C)C(c4ccccc4)C3)no2)c1 (configuration not stated),inactive: -3%,
CCCNC(=O)COc1coc(CN2CCN(c3ccccc3)CC2)cc1=O,,"inconclusive [activator, single point]"
CN(CC(=O)Nc1cccc(F)c1)C(=O)CCCc1c[nH]c2ccccc12,inactive: -6.16%,
N=c1c(C(=O)NCc2ccco2)cc2c(=O)n3ccccc3nc2n1CC1CCCO1 (configuration not stated),,"inconclusive [activator, single point]"
COc1cc(/C=C(\C#N)c2nc3ccccc3[nH]2)ccc1OC(=O)c1ccco1,,"inconclusive [activator, partial curve]"
CCc1ccc2nc(N(CCN(C)C)C(=O)/C=C/c3cccs3)sc2c1,,"inconclusive [activator, single point]"
O=S(=O)(CCOc1ccccc1)c1nc2ccccc2[nH]1,,active: 5.8 µM
COc1ccc(COC(=O)N/N=C(\C)CC(=O)Nc2ccc(Cl)cn2)cc1,,"inconclusive [activator, single point]"
CSc1nc2ccc(NS(=O)(=O)c3ccc(Br)s3)cc2s1,,"inconclusive [activator, single point]"
Cc1ccc(C2NC(=O)c3ccccc3N2)s1 (configuration not stated),,"inconclusive [activator, single point]"
COc1ccc(Nc2ncc3c(n2)CC(c2ccccc2)CC3=O)cc1 (configuration not stated),,"inconclusive [activator, single point]"
Cc1[nH]c2ccccc2c1SCc1nnc(SCc2ccc(Cl)cc2)n1C,,"inconclusive [activator, single point]"
O=C(OCC(=O)N1CCN(C(=O)c2ccco2)CC1)c1cc(-c2cccc(Br)c2)nc2ccccc12,,"inconclusive [activator, full curve, poor fit]"
COc1cc(/C=N/NC(=O)c2ccoc2C)ccc1OCCN1CCCCC1,,"inconclusive [activator, single point]"
O=C(O)CCn1cc(/C=C/C(=O)c2ccc(Cl)cc2)c(-c2ccc(Br)cc2)n1,,"inconclusive [activator, single point]"
CC(=O)C(Cc1cccc(F)c1)(Cc1cccc(F)c1)C(C)=O,,"inconclusive [activator, single point]"
COc1ccc2nc(SCC(=O)N3CCNC3=O)[nH]c2c1,inactive: -5.15%,
CC(C)c1ccc(/C=C/C(=O)NC(=S)NN2CCOCC2)cc1,inactive: 2.69%,
CCc1c(C#N)c(SCc2c(C)noc2C)nc2c1C(=O)CC(C)(C)C2,,active: 9.2 µM
COc1cccc(/C=N/N2CCN(c3ccncc3S(=O)(=O)N3CCCCC3)CC2)c1,,"inconclusive [activator, single point]"

Compound,"activity, positive = re-replication",Potency
COc1ccc(C(=O)NC(=S)N(C)C2CCCCC2)cc1Br,,"inconclusive [activator, partial curve, poor fit]"
Brc1ccc(CN2CCN(c3ccccc3)CC2)o1,,"inconclusive [activator, partial curve, poor fit]"
O=C(CN1CCN(Cc2ccc3c(c2)OCO3)CC1)NCC(F)(F)F,inactive: -3.06%,
COc1cc2c(cc1NC(=O)c1cc(-c3cccnc3)nc3ccc(C)cc13)oc1ccccc12,,"inconclusive [activator, partial curve, poor fit]"
CC(=O)Nc1nc(N2C(=O)c3ccccc3C2=O)n(-c2ccccc2)n1,inactive: 0.603%,
COc1ccc2nc(NC(=O)c3cc(C)oc3C)sc2c1,inactive: 8.95%,
CC1CC(C)CN(CCCNC(=O)CN2C(=O)CSc3ccc(S(=O)(=O)N4CCCCC4)cc32)C1 (configuration not stated),inactive: 1.41%,
N#Cc1c(N)nc2c(c1-c1ccc3c(c1)OCO3)CCc1ccccc1-2,,"inconclusive [activator, single point]"
COc1cccc(CNC(=O)COC(=O)c2c(NC(C)=O)sc(C)c2C)c1,inactive: 1.9%,
COC(=O)CNC(=O)C(C)(C)Oc1ccc(Cl)cc1,inactive: -11.7%,
CC(C)(C)c1cc(NC(=O)Nc2ccc(Br)cc2Cl)no1,,"inconclusive [activator, single point]"
Cc1cc(/N=C/C=C2/N(C)c3ccccc3C2(C)C)n(CCC#N)n1,,"inconclusive [activator, single point]"
COc1ccc(NC(=O)C2CCC2)cc1S(=O)(=O)Nc1cc(C)ccc1Br,,"inconclusive [activator, single point]"
CC(C)(C)NC(=O)CSc1nc(N)c(NC(=O)c2ccccc2F)c(=O)[nH]1,inactive: 0%,
COc1ccc(/C=C/C(=O)c2ccc3c4c(cccc24)CC3)cc1,,active: 18.4 µM
COc1ccccc1C(=O)NC(=O)CSc1nc(C)cs1,inactive: -1.56%,
CSc1nc(-c2ccc(C)cc2)nc(N)c1C#N,,"inconclusive [activator, single point]"
C=CCc1ccc(OCCOc2cccc3ccc(C)nc23)c(OC)c1,,active: 11.6 µM
O=[N+]([O-])c1ccc2nc(-c3ccccc3)[nH]c2c1,inactive: -1.87%,
N#Cc1cn(CCOC(=O)c2cccc(C(F)(F)F)c2)c(=O)[nH]c1=O,,"inconclusive [activator, single point]"
O=C(NC(=S)Nc1ccc(Br)cc1)C1CCC1,inactive: 1.87%,
Cc1cc(Oc2ccccc2)nc(-c2ccccc2O)n1,,"inconclusive [activator, single point]"
Cc1ccc2c(CC(=O)NC3CCS(=O)(=O)C3)coc2c1C (configuration not stated),inactive: 5.16%,

# Reference: PubChem BioAssay AID624296 (National Center for Advancing Translational Sciences (NCATS), 2012)
